# Source: the supplement of paper PMC10126150
# Sequences with one replicate were seen in a single cluster, so their values are uncertain.
# Tested on: ATP
# Experiment: switch fluorescence ratio, 500 uM ATP over buffer (Cy3 cluster intensity, sum of 5 cycles each) (fold (ratio)); higher = stronger signal-on switching upon ATP binding; sequences stand for … in TCGTCGGCAGCGTCAGATGTGTATAAGAGACAGTTTTTTTTTTTTTTTTTTTTTTTTT…TC
# Conditions: aptamer strand: ATP DNA aptamer (quencher-CACCTGGGGGAGTATTGCGGAGGAAGG + anchor), 100 nM annealed; ATP concentration: 500 uM; one replicate
# How it was run: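 Five buffer/ATP imaging cycles were run on Cy3-labelled switching-strand clusters on a modified Illumina MiSeq flow-cell, with NaOH stripping and re-annealing between cycles. In each cycle, clusters annealed to 100 nM quencher-labelled ATP aptamer were imaged in selection buffer, then after 15 min with 500 uM ATP at 22 °C. Per cluster, the fluorescence ratio is summed target-cycle over summed buffer-cycle Cy3 intensity, averaged per switch-domain sequence. Only clusters within 100-1000 RFU were kept.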
# 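Also: ATP exposure 15 min at 22 °C before imaging.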
row,Sequence,switch fluorescence ratio
1,GAGTATCTAC,1.03
2,GAGTATGGAG,1.02
3,GAGTCACTAT,1.01
4,GAGTCAGCAT,1.83
5,GAGTCATGG,0.989
6,GAGTCGCCA,1.08
7,GAGTCTCAG,1.02
8,GAGTCTTGAG,1
9,GAGTGAAGTT,0.97
10,GAGTGACTTC,1
11,GAGTGAGGAA,0.993
12,GAGTGATGGG,0.968
13,GAGTGGTCCC,1.08
14,GAGTGTAGGT,1.07
15,GAGTGTCTCA,0.996
16,GAGTTACCCA,1.06
17,GAGTTACGTG,1.01
18,GAGTTACTTA,0.994
19,GAGTTATACC,0.996
20,GAGTTATTAA,0.98
21,GAGTTCAAAG,1.03
22,GAGTTCACAC,0.946
23,GAGTTCTAAT,0.985
24,GAGTTCTGGA,0.988
25,GAGTTGCCTC,0.991

row,Sequence,switch fluorescence ratio
1,GAGTTGGGCC,1.02
2,GAGTTTGACT,0.979
3,GAGTTTTCGA,1.02
4,GATAAAAAAC,1.16
5,GATAAAAGTC,1.04
6,GATAAACACT,1.03
7,GATAAAGCGG,0.971
8,GATAAATCTG,1
9,GATAACAGTA,1.06
10,GATAACGGGT,0.991
11,GATAAGTCAC,1.13
12,GATACAACAG,1.22
13,GATACAAGAA,1
14,GATACCATTT,1.03
15,GATACCCGCG,1.06
16,GATACCCGTC,1.09
17,GATACGGGAA,1.06
18,GATACGTCGG,0.998
19,GATACTAAGT,1.01
20,GATACTAC,1.25
21,GATACTGAGT,0.985
22,GATACTGGT,1.01
23,GATACTTTAA,1.04
24,GATAGATGGT,0.987
25,GATAGCGCCG,1.05

row,Sequence,switch fluorescence ratio
1,GATAGCGTGG,0.999
2,GATAGGCCCT,0.979
3,GATAGGTAAC,0.996
4,GATAGGTGGA,0.991
5,GATATAACAA,1.02
6,GATATACAA,1.04
7,GATATAGTTA,0.99
8,GATATCACGA,1.02
9,GATATCTATG,1.01
10,GATATCTTCA,1.04
11,GATATGCAGC,0.988
12,GATATTAACG,1
13,GATATTGGAG,1
14,GATATTGGGT,1.04
15,GATCACACGC,1.12
16,GATCACCGGT,1.01
17,GATCACTATC,0.999
18,GATCAGCTTA,0.985
19,GATCATATCG,0.974
20,GATCATGCAT,1.02
21,GATCATTACT,0.989
22,GATCCCCGTT,0.998
23,GATCCCCTCC,1.17
24,GATCCGCGAA,1.72
25,GATCCTAGGG,0.967

row,Sequence,switch fluorescence ratio
1,GATCCTAGTA,1.02
2,GATCCTCAGA,0.936
3,GATCCTGTCG,1.05
4,GATCGAAAAC,1.03
5,GATCGATCGC,1.1
6,GATCGCTTTT,1.9
7,GATCGGCATC,1.06
8,GATCGTAATC,2.01
9,GATCGTGGGG,0.967
10,GATCTAAGGA,0.967
11,GATCTAGTCT,1.04
12,GATCTAGTGG,0.983
13,GATCTATCTG,0.983
14,GATCTCATCT,0.963
15,GATCTCCCCA,1.14
16,GATCTCTAAT,0.973
17,GATCTGACAG,1.01
18,GATCTGTGTA,0.981
19,GATCTTAGGA,0.944
20,GATCTTGGTG,0.992
21,GATGAATGAT,0.99
22,GATGAGAACT,1.02
23,GATGAGACTA,0.992
24,GATGATTTAA,0.958
25,GATGCAACTG,1.08
